Reference: PubChem BioAssay AID624417 (National Center for Advancing Translational Sciences (NCATS), 2012)
About 6,400 (1.6%) of roughly 410,000 compounds were called active. Inconclusive means that the source gave no clear call. Such entries were picked first, then a sample of the others. Calls come from the whole dose curve; as a rule, active = well fitted inhibition curve with a large enough effect; inconclusive = small, poorly fitted or top-dose-only effect; inactive = no such curve, though single readings can be large or run the other way. Potencies of inconclusive entries are left out as doubtful fits.
Note: nearly all actives have a fitted effect of over 55% in size.
Potency is the fitted concentration of half-maximal effect; tags give direction and shape of the fitted curve.

These compounds were tested against Glucagon-like peptide 1 receptor (Homo sapiens) (UniProt P43220) (assay: qHTS of GLP-1 Receptor Inverse Agonists (Inhibition Mode)). Settings: HEK293 GLP-1R CRE-luciferase, luminescence, 24 h, GLP-1R form is constitutively active; series mostly up to 38.3 µM.
Sequence of UniProt P43220 (P43220 whole entry, looked up): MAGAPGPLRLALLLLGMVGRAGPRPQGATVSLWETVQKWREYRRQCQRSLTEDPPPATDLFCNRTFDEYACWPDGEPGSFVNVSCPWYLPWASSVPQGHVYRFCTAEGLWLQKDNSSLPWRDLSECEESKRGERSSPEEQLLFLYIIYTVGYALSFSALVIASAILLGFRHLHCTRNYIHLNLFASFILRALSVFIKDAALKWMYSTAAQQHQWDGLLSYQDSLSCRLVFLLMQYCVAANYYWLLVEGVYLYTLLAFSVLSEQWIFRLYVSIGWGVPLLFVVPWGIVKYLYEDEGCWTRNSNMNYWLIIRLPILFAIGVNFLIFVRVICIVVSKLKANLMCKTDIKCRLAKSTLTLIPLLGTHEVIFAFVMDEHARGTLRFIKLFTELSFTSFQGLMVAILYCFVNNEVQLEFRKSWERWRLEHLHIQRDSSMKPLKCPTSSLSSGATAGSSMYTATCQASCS
Outline: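 Using stably transfected HEK293 (constitutively active GLP-1R, cAMP-luciferase reporter), compounds were incubated 24 hr and luciferase measured by luminescence.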
`Cc1ccccc1Nc1ncnc2c1cnn2Cc1ccccc1` was tested, and the Potency was inconclusive [inhibitor, single point].
In the case of `COc1ccc(/C=N/NC(=O)c2cccc([N+](=O)[O-])c2)cc1OC(=O)c1ccccc1`, the Potency was inconclusive [inhibitor, partial curve].
`COc1cc2[nH]c(=O)n(C3CCCCC3)c(=O)c2cc1OC` was tested, and the Potency was “inactive”.
For `O=C(NCCc1c[nH]c2ccccc12)c1ccc(S(=O)(=O)NCc2ccco2)cc1`, the Potency was inconclusive [inhibitor, single point].
With `O=C(c1ccc(Oc2ccccc2)cc1)C1CCCN(C(=O)c2cnccn2)C1` (configuration not stated) the Potency was inconclusive [inhibitor, full curve, poor fit].
In the case of `COC(=O)c1cccc(CN2C(=O)C(C)Sc3cc(Cl)ccc32)c1` (configuration not stated), the Potency was inconclusive [inhibitor, single point].
In the case of `COc1cc2c(cc1OC)-c1nnc(-c3cccs3)n1C1(CCCC1)C2`, the Potency was inconclusive [inhibitor, partial curve, poor fit].
With `Cc1ccc(O)c(CNc2nc3ccccc3[nH]2)c1` the Potency was inconclusive [inhibitor, single point].
In the case of `Cc1ccc2[nH]c3c(c2c1)CCCC3NC(=O)CCl` (configuration not stated), the Potency was inconclusive [inhibitor, full curve, poor fit].
With `Cn1c2ccccc2c2ncn(Cc3ccc(F)cc3)c(=O)c21` the Potency was “inactive”.
`CCN(CCNC(=O)C1CCN(Cc2nc(-c3ccc(Cl)cc3)oc2C)CC1)c1ccccc1` was tested, and the Potency was active: 2.51 µM.
For `CC(C)CCN1CCN(Cc2ccc(C(F)(F)F)cc2)CC1CCO` (configuration not stated), the Potency was inconclusive [inhibitor, single point].
With `COc1ccc(NC(=O)COc2cc(C)cc(C)c2)cc1S(=O)(=O)N1CCCCC1` the Potency was inconclusive [inhibitor, partial curve, poor fit].
`COc1ccc(C(=O)OCC(=O)N2CCCC2=O)c(OC)c1` was tested, and the Potency was “inactive”.
With `Cc1ccc(C(=O)N(Cc2ccco2)Cc2sccc2C)cc1` the Potency was inconclusive [inhibitor, partial curve, poor fit].
In the case of `Cc1nc(CNC(=O)c2cc(COc3ccc(F)cc3Cl)on2)cs1`, the Potency was inconclusive [inhibitor, single point].
For `C[C@]12CC[C@H](O)CC1=CCC1C2CC[C@@]2(C)C1CC[C@@H]2NC(=O)[C@@H](N)Cc1ccccc1` (some centres not stated), the Potency was inconclusive [inhibitor, partial curve, poor fit].
For `O=C(NCc1ccc(Cl)cc1)c1cc2c(s1)-c1ccccc1SC2`, the Potency was inconclusive [inhibitor, single point].
In the case of `CN1CCN(c2oc(Cc3cccc4ccccc34)nc2C#N)CC1`, the Potency was inconclusive [inhibitor, partial curve, poor fit].
For `CC1CCc2onc(C(=O)N3CCN(c4ccccc4)CC3)c2C1` (configuration not stated), the Potency was “inactive”.
In the case of `CC1CCCC(NC(=O)c2ccc3c(c2)OCCO3)C1C` (configuration not stated), the Potency was inconclusive [inhibitor, single point].
With `Cc1cc(-c2ccccc2)n(-c2cc(N/N=C/c3ccccc3O)ncn2)n1` the Potency was inconclusive [inhibitor, partial curve, poor fit].
`CC(O)(c1ccc(F)c(F)c1)c1nc(-c2csc3ccccc23)cs1` (configuration not stated) was tested, and the Potency was inconclusive [inhibitor, single point].
In the case of `COC(=O)C1=C(C)N(Cc2ccccc2)C(=NCc2cccc(Cl)c2)N[C@H]1c1ccccc1`, the Potency was inconclusive [inhibitor, single point].
`Cc1ccc(NC(=O)CSc2nnc(-c3ccoc3C)n2CCCN(C)C)cc1Cl` was tested, and the Potency was inconclusive [inhibitor, partial curve, poor fit].
In the case of `O=C(NCc1ccc2c(c1)OCO2)c1ccc2c(c1)N(Cc1c(F)cccc1Cl)C(=O)CS2`, the Potency was inconclusive [inhibitor, single point].
In the case of `COc1cc(C2C(C#N)=C(N)Oc3n[nH]c(-c4cccnc4)c32)cc(Br)c1O` (configuration not stated), the Potency was “inactive”.
`COC(=O)[C@@]12C[C@@H](CC(=O)NCC34CC5CC(CC(C5)C3)C4)C(=O)N(Cc3ccco3)C1=CCC(C)(C)C2` was tested, and the Potency was active: 10 µM.
In the case of `CC1=CC(C)[C@@H]2COC(c3ccc(O)cc3)[C@H]1C2C` (some centres not stated), the Potency was inconclusive [inhibitor, single point].
`CCN(CC(=O)NCc1ccc(F)cc1)CC(=O)Nc1ccccc1-c1ccccc1` was tested, and the Potency was inconclusive [inhibitor, partial curve, poor fit].
With `CC(C)C(=O)N1CCN(c2ccccc2NC(=S)NC(=O)c2cccs2)CC1` the Potency was inconclusive [inhibitor, partial curve, poor fit].
For `CCC(C(=O)NCCC1=CCCCC1)c1ccccc1` (configuration not stated), the Potency was inconclusive [inhibitor, single point].
With `Cc1ccc(S(=O)(=O)NCC2CCC(C(=O)NCCCN3CCC(C)CC3)CC2)cc1` (configuration not stated) the Potency was inconclusive [inhibitor, single point].
With `CCC1CCCCN1CCCNC(=O)CS(=O)(=O)Cc1nc(-c2cccc(OC)c2)oc1C` (configuration not stated) the Potency was inconclusive [inhibitor, partial curve, poor fit].
With `CN(C(=S)Nc1ccc(SC(F)F)cc1)c1ccc(O)cc1` the Potency was inconclusive [inhibitor, partial curve].
In the case of `CNC(=S)NNC(=O)c1ccc(=O)n(Cc2ccc(Cl)cc2Cl)c1`, the Potency was “inactive”.
In the case of `CCN1CCN(Cc2ccc(NC(=O)c3cc(NC(=O)c4cncc(-c5ccc(C#N)cc5)c4)cc(OC)c3)cc2C(F)(F)F)CC1`, the Potency was inconclusive [inhibitor, single point].
For `COc1ccc(Nc2oc(-c3ccc(COc4cccc(C)c4)o3)nc2C#N)cc1`, the Potency was inconclusive [inhibitor, single point].
`COC(=O)c1cc(NC(=O)CCc2c(C)nc3c(c(C)nn3C(C)(C)C)c2C)cc(C(=O)OC)c1` was tested, and the Potency was “inactive”.
With `O=C(c1ccccc1Br)N1CCCC(c2nc(-c3cccs3)no2)C1` (configuration not stated) the Potency was inconclusive [inhibitor, full curve, poor fit].
In the case of `Cc1nc(-c2ccccc2)sc1C1(C)CC(c2c(Cl)cccc2Cl)=NO1` (configuration not stated), the Potency was inconclusive [inhibitor, single point].
In the case of `COc1ccc(N=C2S/C(=C\c3ccc(Cl)c([N+](=O)[O-])c3)C(=O)N2CCN(C)C)cc1`, the Potency was inconclusive [inhibitor, single point].
With `O=C(NCC(c1ccco1)N1CCCCC1)c1ccc(S(=O)(=O)Nc2ccccc2Cl)cc1` (configuration not stated) the Potency was inconclusive [inhibitor, partial curve, poor fit].
With `CC(C)(C)c1ccc(OCCOc2ccc(C(C)(C)C)cc2NC=O)c(NC=O)c1` the Potency was active: 4.47 µM.
`OC(CNc1nc(C(F)(F)F)nc2ccccc12)c1ccccc1` (configuration not stated) was tested, and the Potency was inconclusive [inhibitor, single point].
`CCCN(CC(=O)Nc1ccccc1C)CC(=O)Nc1ccc(Br)cc1F` was tested, and the Potency was active: 10 µM.
`CC(C)c1ccc(S(=O)(=O)/N=C2\C=C(NS(=O)(=O)c3ccccc3)C(=O)c3ccccc32)cc1` was tested, and the Potency was inconclusive [inhibitor, single point].
In the case of `CSc1nc(NCCOCCO)c2sc3nc(-c4ccco4)c4c(c3c2n1)CCC4`, the Potency was inconclusive [inhibitor, partial curve, poor fit].
With `Cc1ccc(C(=O)O/N=C(\N)c2ccccn2)cc1` the Potency was active: 2.51 µM.
For `COc1ccc(C(=O)Nn2c(SCC(=O)N3CCC(C)CC3)nc3ccccc3c2=O)cc1`, the Potency was inconclusive [inhibitor, partial curve, poor fit].
For `Cc1ccc(C(=O)NC(C(=O)OCc2cn3cc(Cl)ccc3n2)C(C)C)cc1` (configuration not stated), the Potency was inconclusive [inhibitor, partial curve, poor fit].
For `COc1ccc(C)cc1NC(=O)CCN1CCN(c2ccccc2)CC1`, the Potency was inconclusive [inhibitor, partial curve, poor fit].
With `O=C(C#Cc1ccccc1)c1cccc([N+](=O)[O-])c1` the Potency was inconclusive [inhibitor, partial curve].
For `O=C1NC(=Nc2ccccc2Cl)S/C1=C\c1cccc([N+](=O)[O-])c1`, the Potency was inconclusive [inhibitor, single point].
With `CCN(CC)c1ccc(-c2nc3cnccc3n2C)cc1` the Potency was inconclusive [inhibitor, partial curve, poor fit].
`CCn1ncc(Br)c1C(=O)Nc1ccn(C23CC4CC(CC(C4)C2)C3)n1` was tested, and the Potency was active: 7.94 µM.
In the case of `Cc1ccc(Oc2nnc(-c3cccs3)c3ccccc23)cc1C`, the Potency was inconclusive [inhibitor, full curve, poor fit].
`Cc1nc(-c2ccc(C#N)cc2)cs1` was tested, and the Potency was “inactive”.
For `COc1ccc(Cl)cc1-n1cc(-c2ccccc2)nc1SCC(=O)Nc1ccc(C)cc1`, the Potency was inconclusive [inhibitor, partial curve, poor fit].
`Cc1ccc([N+](=O)[O-])cc1CN1CCN(c2ncc(Cc3ccccc3)cn2)CC1` was tested, and the Potency was inconclusive [inhibitor, single point].
In the case of `O=C(COc1ccccc1)NCC(c1ccco1)N1CCCCC1` (configuration not stated), the Potency was inconclusive [inhibitor, partial curve].
With `CCOc1ccc(NC(=O)c2ccc(NS(=O)(=O)c3cccs3)cc2)cc1` the Potency was inconclusive [inhibitor, full curve].
